From the CheMixHub ionic liquid set
± gives the uncertainty stated by the source. The source gives many values for each of these; only a part stands here.

Assay: xn = mol fraction of the nth substance listed

CCCCCCCCCCCCCCCC[n+]1ccccc1.[Cl-] + C[C@H](N)C(=O)O + O
308.15 K, 101 kPa
Conditions	electrical conductivity [S/m]
x2 = 0.0003926, x1 = 8.536e-05	0.00602 ± 6e-05
x2 = 0.0003926, x1 = 9.294e-05	0.00624 ± 6.2e-05
x2 = 0.0003926, x1 = 0.0001002	0.00645 ± 6.5e-05
x2 = 0.0003926, x1 = 0.0001072	0.0067 ± 6.7e-05
x2 = 0.0003926, x1 = 0.0001139	0.00687 ± 6.9e-05
x2 = 0.0003926, x1 = 0.0001204	0.00693 ± 6.9e-05
x2 = 0.0009271, x1 = 1.754e-05	0.00309 ± 3.1e-05
x2 = 0.0009271, x1 = 1.971e-05	0.0033 ± 3.3e-05
x2 = 0.0009271, x1 = 2.17e-05	0.00338 ± 3.4e-05
x2 = 0.0009271, x1 = 2.387e-05	0.00355 ± 3.6e-05
x2 = 0.0009271, x1 = 2.586e-05	0.0037 ± 3.7e-05
x2 = 0.0009271, x1 = 2.984e-05	0.00391 ± 3.9e-05
x2 = 0.0009271, x1 = 3.382e-05	0.00405 ± 4.1e-05
x2 = 0.0009271, x1 = 3.78e-05	0.00424 ± 4.2e-05
x2 = 0.0009271, x1 = 4.16e-05	0.00439 ± 4.4e-05
x2 = 0.0009271, x1 = 4.521e-05	0.00452 ± 4.5e-05
x2 = 0.0009271, x1 = 4.901e-05	0.00458 ± 4.6e-05
x2 = 0.0009271, x1 = 5.082e-05	0.00472 ± 4.7e-05
x2 = 0.0009271, x1 = 5.968e-05	0.00501 ± 5e-05
x2 = 0.0009271, x1 = 6.8e-05	0.00535 ± 5.4e-05
x2 = 0.0009271, x1 = 7.614e-05	0.00552 ± 5.5e-05
x2 = 0.0009271, x1 = 8.391e-05	0.00576 ± 5.8e-05
x2 = 0.0009271, x1 = 9.133e-05	0.00595 ± 6e-05
x2 = 0.0009271, x1 = 9.856e-05	0.00626 ± 6.3e-05
x2 = 0.0009271, x1 = 0.0001054	0.00643 ± 6.4e-05
x2 = 0.0009271, x1 = 0.0001121	0.00655 ± 6.6e-05
x2 = 0.0009271, x1 = 0.0001185	0.00667 ± 6.7e-05
x2 = 0.0009272, x1 = 1.09e-06	0.000415 ± 4e-06
x2 = 0.0009272, x1 = 2.35e-06	0.000686 ± 7e-06
x2 = 0.0009272, x1 = 3.44e-06	0.000935 ± 9e-06
x2 = 0.0009272, x1 = 4.52e-06	0.00115 ± 1.2e-05
x2 = 0.0009272, x1 = 5.61e-06	0.00138 ± 1.4e-05
x2 = 0.0009272, x1 = 6.69e-06	0.00157 ± 1.6e-05
x2 = 0.0009272, x1 = 7.78e-06	0.00174 ± 1.7e-05
x2 = 0.0009272, x1 = 9.04e-06	0.001945 ± 1.9e-05
x2 = 0.0009272, x1 = 1.013e-05	0.00209 ± 2.1e-05
x2 = 0.0009272, x1 = 1.121e-05	0.00233 ± 2.3e-05
x2 = 0.0009272, x1 = 1.23e-05	0.00244 ± 2.4e-05
x2 = 0.0009272, x1 = 1.338e-05	0.00264 ± 2.6e-05
x2 = 0.0009272, x1 = 1.447e-05	0.00282 ± 2.8e-05
x2 = 0.0009272, x1 = 1.537e-05	0.00292 ± 2.9e-05
x2 = 0.001838, x1 = 1.09e-06	0.000537 ± 5e-06
x2 = 0.001838, x1 = 2.36e-06	0.000825 ± 8e-06
x2 = 0.001838, x1 = 3.45e-06	0.001043 ± 1e-05
x2 = 0.001838, x1 = 4.54e-06	0.001301 ± 1.3e-05
x2 = 0.001838, x1 = 5.81e-06	0.001447 ± 1.4e-05
x2 = 0.001838, x1 = 6.9e-06	0.00176 ± 1.8e-05
x2 = 0.001838, x1 = 7.99e-06	0.001944 ± 1.9e-05
x2 = 0.001838, x1 = 9.08e-06	0.00205 ± 2.1e-05
x2 = 0.001838, x1 = 1.016e-05	0.00219 ± 2.2e-05
x2 = 0.001838, x1 = 1.125e-05	0.00241 ± 2.4e-05
x2 = 0.001838, x1 = 1.252e-05	0.00269 ± 2.7e-05
x2 = 0.001838, x1 = 1.361e-05	0.00279 ± 2.8e-05
x2 = 0.001838, x1 = 1.47e-05	0.0029 ± 2.9e-05
x2 = 0.001838, x1 = 1.579e-05	0.00308 ± 3.1e-05
x2 = 0.001838, x1 = 1.797e-05	0.00324 ± 3.2e-05
x2 = 0.001838, x1 = 1.997e-05	0.00329 ± 3.3e-05
x2 = 0.001838, x1 = 2.214e-05	0.0035 ± 3.5e-05
x2 = 0.001838, x1 = 2.432e-05	0.0036 ± 3.6e-05
x2 = 0.001838, x1 = 2.632e-05	0.00368 ± 3.7e-05
x2 = 0.001838, x1 = 3.049e-05	0.00382 ± 3.8e-05
x2 = 0.001838, x1 = 3.449e-05	0.00396 ± 4e-05
x2 = 0.001838, x1 = 3.848e-05	0.00417 ± 4.2e-05
x2 = 0.001838, x1 = 4.229e-05	0.00451 ± 4.5e-05
x2 = 0.001838, x1 = 4.61e-05	0.00469 ± 4.7e-05
x2 = 0.001838, x1 = 4.991e-05	0.0048 ± 4.8e-05
x2 = 0.001838, x1 = 5.173e-05	0.0049 ± 4.9e-05
x2 = 0.001838, x1 = 6.062e-05	0.00522 ± 5.2e-05
x2 = 0.001838, x1 = 6.933e-05	0.00531 ± 5.3e-05
x2 = 0.001838, x1 = 7.75e-05	0.00573 ± 5.7e-05
x2 = 0.001838, x1 = 8.548e-05	0.00582 ± 5.8e-05
x2 = 0.001838, x1 = 9.292e-05	0.00605 ± 6.1e-05
x2 = 0.001838, x1 = 0.0001004	0.00625 ± 6.3e-05
x2 = 0.001838, x1 = 0.0001073	0.0064 ± 6.4e-05
x2 = 0.001838, x1 = 0.000114	0.00659 ± 6.6e-05
x2 = 0.001838, x1 = 0.0001205	0.00677 ± 6.8e-05

CCCCCCCC[n+]1ccccc1.[Br-] + C[C@H](N)C(=O)O + O
100 kPa
Conditions	electrical conductivity [S/m]
288.15 K, x2 = 0.001788, x1 = 0.005928	1.2 ± 0.072
288.15 K, x2 = 0.001788, x1 = 0.006261	1.23 ± 0.074
288.15 K, x2 = 0.001789, x1 = 0.005332	1.14 ± 0.068
288.15 K, x2 = 0.001789, x1 = 0.005641	1.17 ± 0.07
288.15 K, x2 = 0.00179, x1 = 0.004641	1.07 ± 0.064
288.15 K, x2 = 0.00179, x1 = 0.005005	1.11 ± 0.066
288.15 K, x2 = 0.001791, x1 = 0.004243	1.01 ± 0.061
288.15 K, x2 = 0.001792, x1 = 0.003806	0.943 ± 0.057
288.15 K, x2 = 0.001793, x1 = 0.003323	0.857 ± 0.051
293.15 K, x2 = 0.001788, x1 = 0.005921	1.36 ± 0.082
293.15 K, x2 = 0.001788, x1 = 0.006256	1.4 ± 0.084
293.15 K, x2 = 0.001789, x1 = 0.005325	1.29 ± 0.078
293.15 K, x2 = 0.001789, x1 = 0.005634	1.33 ± 0.08
293.15 K, x2 = 0.00179, x1 = 0.004635	1.21 ± 0.072
293.15 K, x2 = 0.00179, x1 = 0.005	1.25 ± 0.075
293.15 K, x2 = 0.001791, x1 = 0.004239	1.14 ± 0.069
293.15 K, x2 = 0.001792, x1 = 0.003802	1.07 ± 0.064
293.15 K, x2 = 0.001793, x1 = 0.003319	0.967 ± 0.058
298.15 K, x2 = 0.001788, x1 = 0.005914	1.53 ± 0.092
298.15 K, x2 = 0.001788, x1 = 0.006249	1.58 ± 0.095
298.15 K, x2 = 0.001789, x1 = 0.00532	1.46 ± 0.087
298.15 K, x2 = 0.001789, x1 = 0.005628	1.5 ± 0.09
298.15 K, x2 = 0.00179, x1 = 0.00463	1.35 ± 0.081
298.15 K, x2 = 0.00179, x1 = 0.004993	1.41 ± 0.085
298.15 K, x2 = 0.001791, x1 = 0.004234	1.28 ± 0.077
298.15 K, x2 = 0.001792, x1 = 0.003797	1.2 ± 0.072
298.15 K, x2 = 0.001793, x1 = 0.003315	1.09 ± 0.065
303.15 K, x2 = 0.001788, x1 = 0.005908	1.72 ± 0.1
303.15 K, x2 = 0.001788, x1 = 0.006242	1.76 ± 0.11
303.15 K, x2 = 0.001789, x1 = 0.005314	1.63 ± 0.098
303.15 K, x2 = 0.001789, x1 = 0.005623	1.68 ± 0.1
303.15 K, x2 = 0.00179, x1 = 0.004626	1.51 ± 0.091
303.15 K, x2 = 0.00179, x1 = 0.004989	1.57 ± 0.095
303.15 K, x2 = 0.001791, x1 = 0.00423	1.43 ± 0.086
303.15 K, x2 = 0.001792, x1 = 0.003795	1.33 ± 0.08
303.15 K, x2 = 0.001793, x1 = 0.003314	1.21 ± 0.073
308.15 K, x2 = 0.001788, x1 = 0.005896	1.95 ± 0.12
308.15 K, x2 = 0.001788, x1 = 0.006229	2.02 ± 0.12
308.15 K, x2 = 0.001789, x1 = 0.005304	1.81 ± 0.11
308.15 K, x2 = 0.001789, x1 = 0.005611	1.88 ± 0.11
308.15 K, x2 = 0.00179, x1 = 0.004615	1.67 ± 0.1
308.15 K, x2 = 0.00179, x1 = 0.004978	1.75 ± 0.1
308.15 K, x2 = 0.001791, x1 = 0.004221	1.58 ± 0.095
308.15 K, x2 = 0.001792, x1 = 0.003786	1.47 ± 0.088
308.15 K, x2 = 0.001793, x1 = 0.003306	1.32 ± 0.08
